Laboratory results reported in the supplement of paper PMC10126150.
Values marked as one replicate rest on one cluster of the flow cell; about a third of the high ones do not repeat.

System: ATP
Test: switch fluorescence ratio, 500 uM ATP over buffer (Cy3 cluster intensity, sum of 5 cycles each) (fold (ratio)); higher = stronger signal-on switching upon ATP binding; sequences stand for … in TCGTCGGCAGCGTCAGATGTGTATAAGAGACAGTTTTTTTTTTTTTTTTTTTTTTTTT…TC
Conditions: aptamer strand: ATP DNA aptamer (quencher-CACCTGGGGGAGTATTGCGGAGGAAGG + anchor), 100 nM annealed; ATP concentration: 500 uM; one replicate
Summary of the method: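 The fluorescence ratio divides summed target-cycle Cy3 intensity by summed buffer-cycle Cy3 intensity for each cluster and is averaged per switch-domain sequence. Cy3-labelled switching-strand clusters on a modified Illumina MiSeq flow-cell were annealed to 100 nM quencher-labelled ATP aptamer, then imaged in selection buffer and again after 15 min with 500 uM ATP at 22 °C. Five such cycles were run, with NaOH stripping and re-annealing between them, and clusters outside 100-1000 RFU were excluded.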
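Also: ATP exposure 15 min at 22 °C before imaging.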

Row | Sequence | switch fluorescence ratio
1 | TTAAACCCTT | 1.05
2 | TGATTGTGAC | 0.937
3 | CTTCTCTTTA | 1
4 | TATTTAAATA | 1.03
5 | TACAGGCCGC | 1.05
6 | ATAGTTGTA | 0.978
7 | GTTCATTCC | 1.27
8 | TGTTAATTCA | 0.984
9 | GTATCACGGT | 1.03
10 | ATGACCCATT | 0.99
11 | TAGGGCGCCC | 0.968
12 | GGTACGTAGA | 1.13
13 | ATGACAGGTA | 0.95
14 | CTAGCTTATC | 1.19
15 | GCCTCCATTT | 1.01
16 | TAGTTGTG | 0.968
17 | TTCCTTCAAT | 1.15
18 | GCTTGA | 0.998
19 | AACGCAGTGA | 0.995
20 | GACCATTGAG | 0.981
21 | ATTTTCGATA | 1.03
22 | ACTTTTCAC | 1.1
23 | TGCGCGGAGT | 0.98

Row | Sequence | switch fluorescence ratio
24 | CCAGACCGGG | 0.973
25 | GGTGGGCGT | 0.924
26 | AAAGCTAACA | 0.982
27 | CCCTCATGCC | 1.08
28 | TAACGAAAGT | 1.18
29 | AGTGGAACCT | 1.56
30 | GAATGAAGAT | 1.01
31 | GAGCCTATAT | 1.03
32 | TCAGCAACA | 1.25
33 | GAGTTATAA | 1.02
34 | CGATCGTTCT | 0.979
35 | CTGAGCGAC | 1.09
36 | TAGAGTAGTC | 0.983
37 | CCGTTGAGAA | 1.06
38 | GACTCACGTA | 1.24
39 | ATTGGTGATA | 0.98
40 | CTGGCGCTCA | 1.03
41 | GAAGCGTCCA | 1.08
42 | TGGCGTGTTT | 0.979
43 | TTTGGCAGTA | 0.966
44 | CGGGGCTGAT | 0.985
45 | CAGGAGGTGA | 1.06
46 | AACGGAATCC | 1.45

Row | Sequence | switch fluorescence ratio
47 | GCGATGCGTC | 1.04
48 | CGGTCTTCTA | 0.977
49 | GCTTCGCGTA | 1.18
50 | GGGATATACG | 1.04
51 | TAAAGCGGGA | 0.973
52 | GACTCTCGGA | 1.04
53 | AAAACATCGG | 0.992
54 | GGTCCAGAAA | 0.978
55 | CTTCCAAAGA | 1.04
56 | TCCGTGTCCA | 1.03
57 | TCCTTTAAGC | 1.22
58 | TAAGGAATC | 1.01
59 | GATCATTGCA | 0.983
60 | GGGGCGCACA | 1
61 | GTGATTCGGA | 0.987
62 | AGGATACGTC | 0.947
63 | TCGGATTGT | 0.944
64 | CGACACGGC | 1.11
65 | TACTATTCTT | 1.07
66 | AGGATCTCTT | 1.02
67 | GACTGAACGA | 1.24
68 | TTTAAGGAGT | 0.951
69 | GCGCATAGCG | 1.04

Row | Sequence | switch fluorescence ratio
70 | ACAGTGCGTA | 1.07
71 | GGAACGATCA | 1.03
72 | AGAGTGGATT | 0.985
73 | GGCTTTTTGC | 0.942
74 | TTAACCGATG | 1.04
75 | ACCTTGAGAA | 1
76 | AGCCGCCTGT | 1.05
77 | AGCTGTTGCG | 0.982
78 | GACGCCCTCT | 1.08
79 | AAGATTGGGC | 1.01
80 | GTGGTTACGT | 0.979
81 | ACTCGCAGAA | 1.45
82 | AGGTAACTGC | 1.05
83 | CGGGCTAATC | 1.13
84 | ATCGCAAACG | 1.41
85 | ACACACCCA | 1.38
86 | GCGCACGGTG | 1.2
87 | GTTACGTGAA | 1.32
88 | CGGTAACTAA | 0.979
89 | GGAGCACCTA | 1.14
90 | GATGTAAGG | 0.984
91 | GTGTTACTGC | 1.02
92 | GACAATATGG | 0.956

Row | Sequence | switch fluorescence ratio
93 | CTAGCCGCCA | 1.19
94 | CACTAGGACA | 0.925
95 | GCCGGTTCCT | 1.03
96 | TATACATCCG | 1.06
97 | CACCTGAATA | 1.02
98 | TACGACTCGC | 1.12
99 | CTTAAGTGT | 1
100 | TTGGGACCGA | 1.01
101 | CCAAATGA | 0.993
102 | AGGACTGTAC | 1.39
103 | TCTTTCTACC | 1.04
104 | TACGTGGAGA | 1.02
105 | TCGACGGCAG | 0.983
106 | TTATAGCACG | 1.15
107 | AGGGTGTAGT | 0.994
108 | CTAAAGTTTG | 1
109 | TACTTGCCCT | 1.06
110 | TGGAACCAGC | 1.03
111 | AGGGGGTGAT | 1.01
112 | CGCTTTTTAG | 1.01
113 | CTTTTTGCGG | 1.2
114 | AATTCCGGTT | 1
115 | TCTATTGGTA | 1.04

Row | Sequence | switch fluorescence ratio
116 | AAACGTTCCT | 3.78
117 | ATAGAGGCGG | 1
118 | TTATCCGGC | 0.96
119 | AATTATGGCA | 1.01
120 | GTGCTATTGG | 1.03
121 | TATACTAAAT | 0.963
122 | CGGGAATGAG | 0.968
123 | GGGGTAGCCA | 0.978
124 | TATGAGCGAA | 0.994
125 | GGCTCCACGC | 0.998
126 | ACAAAGTGT | 0.97
127 | TAGCGTGGCT | 0.983
128 | AGTTCGTCGA | 0.953
129 | GACGTGGGTG | 0.963
130 | CCTGGCTAGG | 1.01
131 | TTTAATGTG | 0.991
132 | AATGGACCAT | 0.992
133 | ATAGTAGCGC | 0.953
134 | AGTAAGCAAT | 2.18
135 | ATTAATTTTT | 0.959
136 | AGACACTGCC | 1.18
137 | CACGACCCTG | 0.993
138 | GGGTGTCACT | 1.09

Row | Sequence | switch fluorescence ratio
139 | TTTTGGTGTA | 1.02
140 | GTAAGTGTTG | 1.01
141 | CACTAATCAG | 1.04
142 | ATTAGAAGTA | 0.971
143 | TGGAGGTCAA | 1.07
144 | CATTTTTCCG | 0.974
145 | AGAAACACTT | 1.03
146 | GTGTAGAATG | 0.988
147 | ATGGCTCT | 0.986
148 | CGCATCGCTT | 1.02
149 | GACTACTCCT | 1.16
150 | GTCGAGGAGG | 0.998
151 | TGAATCAATA | 0.995
152 | GAATGTCACG | 0.984
153 | CGAACTGGCT | 1.01
154 | TCCGACTAA | 4.04
155 | GGCCGAAGAT | 0.998
156 | TTCAAAGCCT | 1.09
157 | TGAGAGGCTG | 0.998
158 | CCTGTTGTC | 0.955
